Binding signal data for 22 molecules are collected here from article PMC12136788.

This is one part of the list.

Sequences and labels used below:
T1: UNK ZnF1-6 (called full-length) (human, UniProt Q9C0B0 30-357)
T1 sequence: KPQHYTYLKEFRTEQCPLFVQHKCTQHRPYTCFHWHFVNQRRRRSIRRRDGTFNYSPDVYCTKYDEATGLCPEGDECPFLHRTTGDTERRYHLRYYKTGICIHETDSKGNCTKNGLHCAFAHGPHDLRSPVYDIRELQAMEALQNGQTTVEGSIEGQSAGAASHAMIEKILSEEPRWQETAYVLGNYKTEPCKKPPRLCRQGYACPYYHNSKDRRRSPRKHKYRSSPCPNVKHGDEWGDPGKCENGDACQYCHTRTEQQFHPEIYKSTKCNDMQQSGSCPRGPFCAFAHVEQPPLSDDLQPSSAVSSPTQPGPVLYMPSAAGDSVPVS

B1: chr9:115020670:115020933:-|3pUTR|ENSG00000041982|msi1|FALSE|unique (ssRNA)
RNA: GGGAGUUCUACAGUCCGACGAUCCUUCUCUUAGGUGGCUCUGGGAAUGGGAGAGGGGUAGGAUGUACAGGGGUAGUUUGUUUUAGAACCAGCCGUAUUUUACAUGAAGCUGUAUAAUUAAUUGUCAUUAUUUUUGUUAGCAAACAACAGAGGAUUGAGCAUCA
B2: chr3:197282668:197282805:-|CDS|ENSG00000075711|msi1|FALSE|unique (ssRNA)
RNA: GGGAGUUCUACAGUCCGACGAUCUGGGAGAUUUCCAGCCUUCCAAGCUCUACUGUGACUUCAGAGACACUGCCAAGCAGCCUUAGCCCUAGUGUAGAGGUGAGAUAAAAAAUGUGUUCUGAAGCUGUUUUUUGGUGAUCAAUUCAACAGAGGAUUGAGCAUCA
B3: chr5:173956200:173956301:+|3pUTR|ENSG00000113742|unk|FALSE|unique (ssRNA)
RNA: GGGAGUUCUACAGUCCGACGAUCCCCCUUCCUCAACCUCUUCACGCUGGCAUGUCCUUUUGUAGCAGUCUGUAACUUAACUAUAGUAUAAUGAAAAGAAUGACCUAUAAUAUAGGUGUUUUGUAGAUUCUUGUGUCACUGCAACAACAGAGGAUUGAGCAUCA
B4: chr5:150657389:150657496:+|3pUTR|ENSG00000171992|unk|total|mutant (ssRNA)
RNA: GGGAGUUCUACAGUCCGACGAUCCUCUCUCUCUCUCUCACACACACACACACACACACACACACACACACACACACACACACCCGUCCGUGCCUUGGAUGAGGCGGGGCAGUGUGUAUAUGGACCCCUGGACUUGCUACCUUCCAACAGAGGAUUGAGCAUCA
B5: chr1:213241217:213241334:+|CDS|ENSG00000136643|unk|total|mutant (ssRNA)
RNA: GGGAGUUCUACAGUCCGACGAUCAGUUCUCCAAGAACAUCAGAUUCCCUCAGCCGAUCAAAAAACCGCCCCAUGGAAUUCUUCCGGACCGACAGUAAGGACCGCGCAAGUGAACUCCUGGGACUUGACUUUGGAGAAAAAUUGCAACAGAGGAUUGAGCAUCA
B6: ENSG00000107863:be:win_2901|CDS|ENSG00000107863|bound_else_gene|NA|bound_elsewhere_windowed (ssRNA)
RNA: GGGAGUUCUACAGUCCGACGAUCUCAUUCACUUUACCUGUACAAAGAUAAAAGAGAGCAGACGACUCCGUCUGAGGAAGAGCAGCCCAUCAGUGUUAAUGCUUGCUUGAUAGACAUCUCUUACAGUGAGACCAAGAGGAAAAACAACAGAGGAUUGAGCAUCA
B7: chr6:75256125:75256201:-|CDS_3pUTR|ENSG00000112697|msi1_unk|FALSE|overlapping (ssRNA)
RNA: GGGAGUUCUACAGUCCGACGAUCUUUGGGGAUUGCUUACAUCGCUGUUGGAUCCAUCUCCUUCCUUCUGGGAGUUGUACUGCUAGUAAUUAAUCAUAAAUAUAGAAACAGUAGUAAUACAGCUGACAUUACCAUUUAAUUUUACAACAGAGGAUUGAGCAUCA
B8: ENSG00000050165:stop:overlap|stop_codon|ENSG00000050165|stop_codon|NA|stop_codon (ssRNA)
RNA: GGGAGUUCUACAGUCCGACGAUCAGAUGGCGCUGAGGGAGCCUGCGGCUGCCGCCGCUGCACUGCUGGGAGGGGAAGAGAUUUAGAUCUGGACCAGGCUGUGGGUAGAUGUGCAAUAGAAAUAGCUAAUUUAUUUCCCCAGGUCAACAGAGGAUUGAGCAUCA
B9: chr7:100040983:100041096:+|3pUTR|ENSG00000106261|unk|FALSE|bound_elsewhere (ssRNA)
RNA: GGGAGUUCUACAGUCCGACGAUCGAUAGCCAAGCAAAAUCAGUAAUUAUUUUAAAAUGAACAUAUGUAUUUUUAUUAACUUUUAGUUAAAUACAGAUUUUACAACGAGGUCAGCAUAAGCCUAAAUCUAUAUAGAGGGCUAACCAACAGAGGAUUGAGCAUCA
B10: chr17:28897780:28898440:-|three_prime_utr|ENSG00000167536|control|control|control (ssRNA)
RNA: GGGAGUUCUACAGUCCGACGAUCUGAAGGAAUAAUGGGUGAUUAUUUCUUCCUGAGAGUGACAGUAACCCCAGAUGGAGAGAUAGGGGUAUGCUAGACACUGUGCUUCUCGGAAAUUUGGAUGUAGUAUUUUCAGGCCCCACCCAACAGAGGAUUGAGCAUCA
B11: ENSG00000198589:be:win_7651|CDS|ENSG00000198589|bound_else_gene|NA|bound_elsewhere_windowed (ssRNA)
RNA: GGGAGUUCUACAGUCCGACGAUCGACCAGCCAUACCAGCUGCCAGUGGAAAUCGAUCCUCUCAUAGCCAGCAAUACAGGAAUGCACAGGAGGCAAAUCACUGACCUUUUAGACCAAAGUAUUCAAGUGCAUUCCCAGUGCUUUCAACAGAGGAUUGAGCAUCA
B12: chr7:39987650:39987751:+|CDS|ENSG00000065883|unk|FALSE|unique (ssRNA)
RNA: GGGAGUUCUACAGUCCGACGAUCUCUAGGCAUUCAAGAUCUCGUAGCAGGCACAGAUUGUCUAGAUCCAGAAGUCGUCAUUCUAGUAUUUCUCCUAGCACACUAACUCUGAAGAGUAGCCUGGCAGCUGAAUUGAACAAGAAUCAACAGAGGAUUGAGCAUCA
B13: chr1:48532853:48534172:-|three_prime_utr|ENSG00000186094|control|control|control (ssRNA)
RNA: GGGAGUUCUACAGUCCGACGAUCGUCUUAUGGGGACAGGAGCAUGCAUUUUCUGCUGGGGAAUGAAAUUAAUCACUCUUCUCUAGCUUCCAAGGAUUUGUGGAUUAAUGCAUAGGCUAGUGAAAGGGAAGGGAUACAAUGAGACAACAGAGGAUUGAGCAUCA
B14: chr19:42297191:42297292:-|CDS|ENSG00000079462|unk|total|mutant (ssRNA)
RNA: GGGAGUUCUACAGUCCGACGAUCCCGACAGGUGAACGAGCUGGUACGGGCGGCACUGGCUGGCCACCCUCGGGCCCACUUCCCCGAUGCCGACCCUGGCUUUGUGCACUCAGAUGGCACCAUCAGCCAUCAUGACAUGUAUGACAACAGAGGAUUGAGCAUCA
B15: chr22:29695108:29695209:+|3pUTR|ENSG00000186575|msi1|total|mutant (ssRNA)
RNA: GGGAGUUCUACAGUCCGACGAUCGUGUGUGUGUGUCUUGCACUCCAGAGCUGACCUCCACCGCCCAGCCUGGGAAGUCAUUGCCGGGAGUGAGACACUGAAGCCCUGAGAAGCCAGUGCCAUCAUCCCCACCCCGCCCAGGGUCAACAGAGGAUUGAGCAUCA
B16: ENSG00000107863:be:win_2251|CDS|ENSG00000107863|bound_else_gene|NA|bound_elsewhere_windowed (ssRNA)
RNA: GGGAGUUCUACAGUCCGACGAUCUUAAGGCAUCAGUCUUACAUCUUGGCAGUAAAUGACCAGGAGACCGGGUCAGACACUACCUGCUGGCUGCCCAAUGAUGCACGUCGAGAGGUCCACAUAAAAAGAAUGGAGGAAAGAAAACAACAGAGGAUUGAGCAUCA
B17: chr5:6669452:6669553:+|3pUTR|ENSG00000145545|unk|FALSE|unique (ssRNA)
RNA: GGGAGUUCUACAGUCCGACGAUCCAUCUCAUCUGGAGUUUUUAAAUGCCAUUUGUUUCAGUUGUCUUUAACAACAUAAUAAAUAGACUUUGCCAUUUAACAAGGUAGCUCAAAUUCUUUUACUAAUUGUUACAUCGAAACAUUCAACAGAGGAUUGAGCAUCA
B18: chr13:99866285:99866388:+|CDS|ENSG00000125246|unk|total|mutant (ssRNA)
RNA: GGGAGUUCUACAGUCCGACGAUCUAUUCUCUACGCCCGGCAAAAGAUUGUUGUCACCGCGAAAGCCUUUGGUCUCCAAGCCACCGAUCUGGUGUACAUUGACUUUCGAGAUGGAGCUGGGCUGCUCCGACAGUCACGAGAAGGCAACAGAGGAUUGAGCAUCA
B19: chr6:15520333:15520434:+|3pUTR|ENSG00000008083|unk|total|mutant (ssRNA)
RNA: GGGAGUUCUACAGUCCGACGAUCCUUGCUGCCGGAUUCAAGCUGUCUUUGCACCCGCUCUAAAGAAGAUUUUCUUCUGGUUUCCGAGAACUAAUUUUGUUUCCGCAUUAAACUGUUGAACUUUUUUUUGUACUCCGAAAACCUCAACAGAGGAUUGAGCAUCA
B20: ENSG00000107863:be:win_3401|CDS|ENSG00000107863|bound_else_gene|NA|bound_elsewhere_windowed (ssRNA)
RNA: GGGAGUUCUACAGUCCGACGAUCCAUUUGAGAAAAAGCCAACUGCUACAGGAACUUUCGGCGUCCGACUAGAUGACUGCCCACCAGCUCAUACUAAUCGGUAUAUUCCAUUAAUAGUUGACAUAUGUUGCAAAUUAGUUGAAGCAACAGAGGAUUGAGCAUCA
B21: chr14:73713276:73713377:-|CDS|ENSG00000176903|unk|total|mutant (ssRNA)
RNA: GGGAGUUCUACAGUCCGACGAUCGGGCAAAGGAGGGGUCUGGAAAGUGUUAUUUAAGCCCCCAACUUCUGAUGCUGAAUUUUCCGAAAGAUUGCACCUCUUCCCCGCCCGAGAGGGGUGGACCGUGCAAGAUGUUGCCCGUGUCAACAGAGGAUUGAGCAUCA
B22: chr2:86144366:86144519:-|CDS|ENSG00000132305|unk|total|mutant (ssRNA)
RNA: GGGAGUUCUACAGUCCGACGAUCAAACACAUUUAAAUUACUGUCAUAUGCUUCCUAUUGCAUUGAGCAUGGUGAUCUGGAGCCCGCAGCAAAGUUUGUCAAUCAGCUGAAGGGGGAAUCCAGACGAGUGGCACAGGACUGGCUCAACAGAGGAUUGAGCAUCA

In the test the target is T1, UNK ZnF1-6 (called full-length). In words: nsRBNS (natural sequence RNA bind-n-seq); RBNS binding buffer (assumed for nsRBNS): 25 mM Tris pH 7.5, 150 mM KCl, 3 mM MgCl2, 0.01% Triton X-100, 500 ug/ml BSA, 20 U/ml SUPERase-In, 4 C; UNK is unkempt and MSI1 is Musashi-1; names of the RNAs are library labels; protein concentration not given here; high values mean tight binding.
B1 yielded a binding signal of 6.74 enrichment R.

B2 came in with a binding signal of 0.536 enrichment R.

Consider B3, for which the binding signal is 2.33 enrichment R.

Consider B4, for which the binding signal came to 1.3 enrichment R.

In the case of B5, the binding signal was 0.721 enrichment R.

As to B6, the binding signal was found to be 0.476 enrichment R.

The molecule B7 yielded a binding signal of 3.18 enrichment R.

As for B8, the binding signal is 2.99 enrichment R.

In turn, B9 showed a binding signal of 2.5 enrichment R.

B10 showed a binding signal of 0.608 enrichment R.

In turn, B11 gave a binding signal of 1.05 enrichment R.

On to B12, for which the binding signal worked out at 0.538 enrichment R.

Regarding B13, the binding signal was 0.93 enrichment R.

In the case of B14, the binding signal was 0.644 enrichment R.

As for B15, the binding signal amounted to 0.749 enrichment R.

B16 showed a binding signal of 0.801 enrichment R.

B17 showed a binding signal of 0.535 enrichment R.

As to B18, the binding signal was determined as 0.414 enrichment R.

Molecule B19 displayed a binding signal of 0.536 enrichment R.

Regarding B20, the binding signal amounted to 0.605 enrichment R.

B21: the binding signal worked out at 0.914 enrichment R.

B22: the binding signal came out at 0.587 enrichment R.
